# Assay results from the supplement of paper PMC4604168 (melanoma cell lines).
# This is one part of the list. Many values rest on one well or one pass, so single values are uncertain.
# Tested on: IST-MEL1
# Test: cell count relative to DMSO control; melanoma cells; higher = more viable cells
# Settings: library dose: standard library concentration; 72 h
# 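Also: cells treated in 1,536-well plates, then fixed and DAPI-stained, with nuclei counted from automated high-throughput microscope images.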
row,Compound,cell count [%]
1,"O=S(=O)(c1ccccc1)N(CC(F)(F)F)c1ccc(C(O)(C(F)(F)F)C(F)(F)F)cc1 + O=c1cc(-c2cccc3c2Sc2ccccc2S3)oc(N2CCOCC2)c1 [KU55933] (first compound 7 µM, partner dose 5 µM)",91
2,"COc1ccc(COc2ccc(Cc3cnc(N)nc3N)cc2OC)cc1 + Oc1cc(-c2nc(-c3ccccc3)[nH]c2-c2ccncc2)ccc1Cl [L779450] (first compound 5 µM, partner dose 1 µM)",89.8
3,"N#Cc1c(O)c2c(-c3ccc(-c4ccccc4O)cc3)csc2[nH]c1=O + c1cc(-c2cnn3cc(-c4ccc(OCCN5CCCCC5)cc4)cnc23)ccn1 [Dorsomorphin] (first compound 10 µM, partner dose 2 µM)",98.7
4,"Oc1nc(-c2ccc(C(F)(F)F)cc2)nc2c1CSCC2 + COc1cc(N2CCC(N3CCN(C)CC3)CC2)ccc1Nc1ncc(Cl)c(Nc2ccccc2S(=O)(=O)C(C)C)n1 [NVP-TAE684] (first compound 10 µM, partner dose 0.4 µM)",107
5,"COc1ccc(-c2ccc3c(N4CCOCC4)nc(N4C[C@@H](C)O[C@@H](C)C4)nc3n2)cc1CO + O=S(=O)(c1ccccc1)N(CC(F)(F)F)c1ccc(C(O)(C(F)(F)F)C(F)(F)F)cc1 [T0901317] (first compound 0.1 µM, partner dose 7 µM)",96.2
6,"COc1ccc(COc2ccc(Cc3cnc(N)nc3N)cc2OC)cc1 + CC(C)CCN1c2nc(Nc3cc(F)c(O)c(F)c3)ncc2N(C)C(=O)C1C [BID1870] (first compound 5 µM, partner dose 1 µM)",94.6
7,"c1cc(-c2cnn3cc(-c4ccc(OCCN5CCCCC5)cc4)cnc23)ccn1 [Dorsomorphin] + CC(C)CCN1c2nc(Nc3cc(F)c(O)c(F)c3)ncc2N(C)C(=O)C1C [BID1870] (first compound 2 µM, partner dose 1 µM)",77.5
8,"N#Cc1c(O)c2c(-c3ccc(-c4ccccc4O)cc3)csc2[nH]c1=O + O=c1cc(-c2cccc3c2Sc2ccccc2S3)oc(N2CCOCC2)c1 [KU55933] (first compound 10 µM, partner dose 5 µM)",84.6
9,"N#Cc1c(O)c2c(-c3ccc(-c4ccccc4O)cc3)csc2[nH]c1=O + CCN(CC)CCCCNc1ncc2cc(-c3cc(OC)cc(OC)c3)c(NC(=O)NC(C)(C)C)nc2n1 [PD173074] (first compound 10 µM, partner dose 0.5 µM)",96.6
10,"Oc1cc(-c2nc(-c3ccccc3)[nH]c2-c2ccncc2)ccc1Cl + Oc1nc(-c2ccc(C(F)(F)F)cc2)nc2c1CSCC2 [XAV939] (first compound 1 µM, partner dose 10 µM)",86.3
11,"O=S(=O)(c1ccccc1)N(CC(F)(F)F)c1ccc(C(O)(C(F)(F)F)C(F)(F)F)cc1 + Oc1cc(-c2nc(-c3ccccc3)[nH]c2-c2ccncc2)ccc1Cl [L779450] (first compound 7 µM, partner dose 1 µM)",80.2
12,"N#Cc1c(O)c2c(-c3ccc(-c4ccccc4O)cc3)csc2[nH]c1=O + Oc1cc(-c2nc(-c3ccccc3)[nH]c2-c2ccncc2)ccc1Cl [L779450] (first compound 10 µM, partner dose 1 µM)",93.6

# Tested on: LB2518-MEL
# Test: as above
# Settings: library dose: standard library concentration; 72 h
row,Compound,cell count [%]
1,"Cn1cc(/C=C2\C(=O)Nc3cccnc32)c2ccccc21 + CCCCCCCCCCCC1=C(O)C(=O)C=C(O)C1=O [Embelin] (first compound 2 µM, partner dose 6 µM)",86.8
2,"COc1ccc2c(c1)CCC1C2CCC2(C)C(NCCCCCCN3C(=O)C=CC3=O)CCC12 (stereo not given) + CCCCCCCCCCCC1=C(O)C(=O)C=C(O)C1=O [Embelin] (first compound 2 µM, partner dose 6 µM)",18.6
3,"COc1cc2ncnc(Nc3ccc(Oc4ccccc4)cc3)c2cc1OC + Cn1cc(/C=C2\C(=O)Nc3cccnc32)c2ccccc21 [GW441756] (first compound 10 µM, partner dose 2 µM)",109
4,"Cc1cc([N+](=O)[O-])ccc1NS(=O)(=O)c1cc(Cl)ccc1Cl + COc1cc(N2CCC(N3CCN(C)CC3)CC2)ccc1Nc1ncc(Cl)c(Nc2ccccc2S(=O)(=O)C(C)C)n1 [NVP-TAE684] (first compound 5 µM, partner dose 0.4 µM)",145
5,"N#Cc1c(O)c2c(-c3ccc(-c4ccccc4O)cc3)csc2[nH]c1=O + COc1cc(N2CCC(N3CCN(C)CC3)CC2)ccc1Nc1ncc(Cl)c(Nc2ccccc2S(=O)(=O)C(C)C)n1 [NVP-TAE684] (first compound 10 µM, partner dose 0.4 µM)",106
6,"O=S(=O)(c1ccccc1)N(CC(F)(F)F)c1ccc(C(O)(C(F)(F)F)C(F)(F)F)cc1 + Cc1cc([N+](=O)[O-])ccc1NS(=O)(=O)c1cc(Cl)ccc1Cl [FH535] (first compound 7 µM, partner dose 5 µM)",65.7
7,"COc1ccc(-c2ccc3c(N4CCOCC4)nc(N4C[C@@H](C)O[C@@H](C)C4)nc3n2)cc1CO + Oc1nc(-c2ccc(C(F)(F)F)cc2)nc2c1CSCC2 [XAV939] (first compound 0.1 µM, partner dose 10 µM)",79.3
8,"COc1ccc(-c2ccc3c(N4CCOCC4)nc(N4C[C@@H](C)O[C@@H](C)C4)nc3n2)cc1CO + O=C1NC(=O)/C(=C/c2ccc(-c3ccc(F)cc3O)o2)S1 [AS252424] (first compound 0.1 µM, partner dose 5 µM)",79.2
9,"COC(=O)c1sccc1S(=O)(=O)Nc1ccc(Nc2ccccc2)cc1OC + Cc1cc([N+](=O)[O-])ccc1NS(=O)(=O)c1cc(Cl)ccc1Cl [FH535] (first compound 5 µM, partner dose 5 µM)",155
10,"CCN(CC)CCCCNc1ncc2cc(-c3cc(OC)cc(OC)c3)c(NC(=O)NC(C)(C)C)nc2n1 + Cn1cc(/C=C2\C(=O)Nc3cccnc32)c2ccccc21 [GW441756] (first compound 0.5 µM, partner dose 2 µM)",82.4
11,"CCN(CC)CCCCNc1ncc2cc(-c3cc(OC)cc(OC)c3)c(NC(=O)NC(C)(C)C)nc2n1 + c1cc(-c2cnn3cc(-c4ccc(OCCN5CCCCC5)cc4)cnc23)ccn1 [Dorsomorphin] (first compound 0.5 µM, partner dose 2 µM)",73
12,"CCN(CC)CCCCNc1ncc2cc(-c3cc(OC)cc(OC)c3)c(NC(=O)NC(C)(C)C)nc2n1 + O=C(O)C(=O)Nc1sc2c(c1C(=O)O)CCNC2 [TCS401] (first compound 0.5 µM, partner dose 8.33333 µM)",100
13,"COc1ccc(COc2ccc(Cc3cnc(N)nc3N)cc2OC)cc1 + O=S(=O)(c1ccccc1)N(CC(F)(F)F)c1ccc(C(O)(C(F)(F)F)C(F)(F)F)cc1 [T0901317] (first compound 5 µM, partner dose 7 µM)",157
14,"O=S(=O)(c1ccccc1)N(CC(F)(F)F)c1ccc(C(O)(C(F)(F)F)C(F)(F)F)cc1 + Cn1cc(/C=C2\C(=O)Nc3cccnc32)c2ccccc21 [GW441756] (first compound 7 µM, partner dose 2 µM)",80.5
15,"Cn1cc(/C=C2\C(=O)Nc3cccnc32)c2ccccc21 + CC(C)CCN1c2nc(Nc3cc(F)c(O)c(F)c3)ncc2N(C)C(=O)C1C [BID1870] (first compound 2 µM, partner dose 1 µM)",76
16,"COC(=O)c1sccc1S(=O)(=O)Nc1ccc(Nc2ccccc2)cc1OC + COc1cc2ncnc(Nc3ccc(Oc4ccccc4)cc3)c2cc1OC [SrcI1] (first compound 5 µM, partner dose 10 µM)",127
17,"O=S(=O)(c1ccccc1)N(CC(F)(F)F)c1ccc(C(O)(C(F)(F)F)C(F)(F)F)cc1 + CCCCCCCCCCCC1=C(O)C(=O)C=C(O)C1=O [Embelin] (first compound 7 µM, partner dose 6 µM)",87.9
18,"N#Cc1c(O)c2c(-c3ccc(-c4ccccc4O)cc3)csc2[nH]c1=O + COc1ccc(-c2ccc3c(N4CCOCC4)nc(N4C[C@@H](C)O[C@@H](C)C4)nc3n2)cc1CO [KU0063794] (first compound 10 µM, partner dose 0.1 µM)",95
19,"COc1ccc2c(c1)CCC1C2CCC2(C)C(NCCCCCCN3C(=O)C=CC3=O)CCC12 (stereo not given) + CC(C)CCN1c2nc(Nc3cc(F)c(O)c(F)c3)ncc2N(C)C(=O)C1C [BID1870] (first compound 2 µM, partner dose 1 µM)",82.5
20,"Oc1cc(-c2nc(-c3ccccc3)[nH]c2-c2ccncc2)ccc1Cl + O=C1NC(=O)/C(=C/c2ccc(-c3ccc(F)cc3O)o2)S1 [AS252424] (first compound 1 µM, partner dose 5 µM)",77.3
21,"COc1ccc2c(c1)CCC1C2CCC2(C)C(NCCCCCCN3C(=O)C=CC3=O)CCC12 (stereo not given) + c1cc(-c2cnn3cc(-c4ccc(OCCN5CCCCC5)cc4)cnc23)ccn1 [Dorsomorphin] (first compound 2 µM, partner dose 2 µM)",70.6
22,"Cn1cc(/C=C2\C(=O)Nc3cccnc32)c2ccccc21 + O=c1cc(-c2cccc3c2Sc2ccccc2S3)oc(N2CCOCC2)c1 [KU55933] (first compound 2 µM, partner dose 5 µM)",124
23,"O=S(=O)(c1ccccc1)N(CC(F)(F)F)c1ccc(C(O)(C(F)(F)F)C(F)(F)F)cc1 + O=c1cc(-c2cccc3c2Sc2ccccc2S3)oc(N2CCOCC2)c1 [KU55933] (first compound 7 µM, partner dose 5 µM)",114
